Measured values: patent publication US20210238308A1 (Chugai, published 2021)

Legend:
Test in all cases: SPR, Protein L capture
[1] = molecular target: T1, PRYSPRY domain of mouse TRIM21 with N-terminal 6xHis tag (mouse)
T1 construct: Expressed in E. coli; also called mTRIM21; mouse TRIM21.PRYSPRY
T1 chain: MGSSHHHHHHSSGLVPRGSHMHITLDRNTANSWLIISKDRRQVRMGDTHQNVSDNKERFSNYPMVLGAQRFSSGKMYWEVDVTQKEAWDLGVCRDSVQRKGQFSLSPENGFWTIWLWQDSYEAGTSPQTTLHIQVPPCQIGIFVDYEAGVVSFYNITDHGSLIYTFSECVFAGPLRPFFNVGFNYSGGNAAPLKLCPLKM

[2] = molecular target: T2, PRYSPRY domain of human TRIM21 with N-terminal 6xHis tag (human)
T2 construct: Expressed in E. coli; also called hTRIM21; human TRIM21.PRYSPRY
T2 chain: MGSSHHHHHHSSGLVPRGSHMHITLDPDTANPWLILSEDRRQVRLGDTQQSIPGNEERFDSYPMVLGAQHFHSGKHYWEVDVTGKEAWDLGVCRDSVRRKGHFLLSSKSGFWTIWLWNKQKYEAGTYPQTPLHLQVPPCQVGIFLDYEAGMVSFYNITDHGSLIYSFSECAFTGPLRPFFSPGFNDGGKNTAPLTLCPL

human FcRn = molecular target: T3, human FcRn (human, UniProt P55899 part only; P61769 part only, limits assumed)
T3 construct: also called hFcRn

Chain of human FcRn (P55899 24-290 limits assumed, form in doubt, chain 1 of 2): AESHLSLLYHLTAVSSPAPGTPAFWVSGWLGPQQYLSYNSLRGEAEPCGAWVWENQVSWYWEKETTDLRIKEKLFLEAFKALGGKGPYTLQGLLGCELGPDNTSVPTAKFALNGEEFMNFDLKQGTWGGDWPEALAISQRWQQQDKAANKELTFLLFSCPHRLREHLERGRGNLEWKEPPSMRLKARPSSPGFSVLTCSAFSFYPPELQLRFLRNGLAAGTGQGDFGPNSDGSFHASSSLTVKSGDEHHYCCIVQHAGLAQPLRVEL
Chain of human FcRn (P61769 21-119 limits assumed, form in doubt, chain 2 of 2, further chain): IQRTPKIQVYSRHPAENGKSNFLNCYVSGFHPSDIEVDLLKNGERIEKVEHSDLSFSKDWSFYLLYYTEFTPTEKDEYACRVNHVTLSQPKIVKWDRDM

B1: MRAH-G1d/MRAL-KT0 I253L (antibody, human IgG1, kappa)
heavy: QVQLQESGPGLVRPSQTLSLTCTVSGYSITSDHAWSWVRQPPGRGLEWIGYISYSGITTYNPSLKSRVTMLRDTSKNQFSLRLSSVTAADTAVYYCARSLARTTAMDYWGQGSLVTVSS[human IgG1 constant region with I253L (EU numbers) omitted here]
light: DIQMTQSPSSLSASVGDRVTITCRASQDISSYLNWYQQKPGKAPKLLIYYTSRLHSGVPSRFSGSGSGTDFTFTISSLQPEDIATYYCQQGNTLPYTFGQGTKVEIKRTVAAPSVFIFPPSDEQLKSGTASVVCLLNNFYPREAKVQWKVDNALQSGNSQESVTEQDSKDSTYSLSSTLTLSKADYEKHKVYACEVTHQGLSSPVTKSFNRGEC
notes: copies: 2 + 2
[1]
  mTRIM21 binding level ratio (variant/control antibody): 3.28
[2]
  hTRIM21 binding level ratio (variant/control antibody): 1.47
Human FcRn
  hFcRn binding level ratio (variant/control antibody): 0.03

B2: MRAH-G1d/MRAL-KT0 L309G (antibody, human IgG1, kappa)
heavy: QVQLQESGPGLVRPSQTLSLTCTVSGYSITSDHAWSWVRQPPGRGLEWIGYISYSGITTYNPSLKSRVTMLRDTSKNQFSLRLSSVTAADTAVYYCARSLARTTAMDYWGQGSLVTVSS[human IgG1 constant region with L309G (EU numbers) omitted here]
light: DIQMTQSPSSLSASVGDRVTITCRASQDISSYLNWYQQKPGKAPKLLIYYTSRLHSGVPSRFSGSGSGTDFTFTISSLQPEDIATYYCQQGNTLPYTFGQGTKVEIKRTVAAPSVFIFPPSDEQLKSGTASVVCLLNNFYPREAKVQWKVDNALQSGNSQESVTEQDSKDSTYSLSSTLTLSKADYEKHKVYACEVTHQGLSSPVTKSFNRGEC
notes: copies: 2 + 2
[1]
  mTRIM21 binding level ratio (variant/control antibody): 1.92
[2]
  hTRIM21 binding level ratio (variant/control antibody): 0.93
Human FcRn
  hFcRn binding level ratio (variant/control antibody): 1.2

B3: MRAH-G1d/MRAL-KT0 I253W (antibody, human IgG1, kappa)
heavy: QVQLQESGPGLVRPSQTLSLTCTVSGYSITSDHAWSWVRQPPGRGLEWIGYISYSGITTYNPSLKSRVTMLRDTSKNQFSLRLSSVTAADTAVYYCARSLARTTAMDYWGQGSLVTVSS[human IgG1 constant region with I253W (EU numbers) omitted here]
light: DIQMTQSPSSLSASVGDRVTITCRASQDISSYLNWYQQKPGKAPKLLIYYTSRLHSGVPSRFSGSGSGTDFTFTISSLQPEDIATYYCQQGNTLPYTFGQGTKVEIKRTVAAPSVFIFPPSDEQLKSGTASVVCLLNNFYPREAKVQWKVDNALQSGNSQESVTEQDSKDSTYSLSSTLTLSKADYEKHKVYACEVTHQGLSSPVTKSFNRGEC
notes: copies: 2 + 2
[1]
  mTRIM21 binding level ratio (variant/control antibody): 2.35
[2]
  hTRIM21 binding level ratio (variant/control antibody): 0.912
Human FcRn
  hFcRn binding level ratio (variant/control antibody): 0

B4: MRAH-G1d/MRAL-KT0 L309D (antibody, human IgG1, kappa)
heavy: QVQLQESGPGLVRPSQTLSLTCTVSGYSITSDHAWSWVRQPPGRGLEWIGYISYSGITTYNPSLKSRVTMLRDTSKNQFSLRLSSVTAADTAVYYCARSLARTTAMDYWGQGSLVTVSS[human IgG1 constant region with L309D (EU numbers) omitted here]
light: DIQMTQSPSSLSASVGDRVTITCRASQDISSYLNWYQQKPGKAPKLLIYYTSRLHSGVPSRFSGSGSGTDFTFTISSLQPEDIATYYCQQGNTLPYTFGQGTKVEIKRTVAAPSVFIFPPSDEQLKSGTASVVCLLNNFYPREAKVQWKVDNALQSGNSQESVTEQDSKDSTYSLSSTLTLSKADYEKHKVYACEVTHQGLSSPVTKSFNRGEC
notes: copies: 2 + 2
[1]
  mTRIM21 binding level ratio (variant/control antibody): 1.04
[2]
  hTRIM21 binding level ratio (variant/control antibody): 0.209
Human FcRn
  hFcRn binding level ratio (variant/control antibody): 0.41

B5: MRAH-G1d/MRAL-KT0 L309E (antibody, human IgG1, kappa)
heavy: QVQLQESGPGLVRPSQTLSLTCTVSGYSITSDHAWSWVRQPPGRGLEWIGYISYSGITTYNPSLKSRVTMLRDTSKNQFSLRLSSVTAADTAVYYCARSLARTTAMDYWGQGSLVTVSS[human IgG1 constant region with L309E (EU numbers) omitted here]
light: DIQMTQSPSSLSASVGDRVTITCRASQDISSYLNWYQQKPGKAPKLLIYYTSRLHSGVPSRFSGSGSGTDFTFTISSLQPEDIATYYCQQGNTLPYTFGQGTKVEIKRTVAAPSVFIFPPSDEQLKSGTASVVCLLNNFYPREAKVQWKVDNALQSGNSQESVTEQDSKDSTYSLSSTLTLSKADYEKHKVYACEVTHQGLSSPVTKSFNRGEC
notes: copies: 2 + 2
[1]
  mTRIM21 binding level ratio (variant/control antibody): 1.28
[2]
  hTRIM21 binding level ratio (variant/control antibody): 0.229
Human FcRn
  hFcRn binding level ratio (variant/control antibody): 0.02

B6: MRAH-G1d/MRAL-KT0 I253V (antibody, human IgG1, kappa)
heavy: QVQLQESGPGLVRPSQTLSLTCTVSGYSITSDHAWSWVRQPPGRGLEWIGYISYSGITTYNPSLKSRVTMLRDTSKNQFSLRLSSVTAADTAVYYCARSLARTTAMDYWGQGSLVTVSS[human IgG1 constant region with I253V (EU numbers) omitted here]
light: DIQMTQSPSSLSASVGDRVTITCRASQDISSYLNWYQQKPGKAPKLLIYYTSRLHSGVPSRFSGSGSGTDFTFTISSLQPEDIATYYCQQGNTLPYTFGQGTKVEIKRTVAAPSVFIFPPSDEQLKSGTASVVCLLNNFYPREAKVQWKVDNALQSGNSQESVTEQDSKDSTYSLSSTLTLSKADYEKHKVYACEVTHQGLSSPVTKSFNRGEC
notes: copies: 2 + 2
[1]
  mTRIM21 binding level ratio (variant/control antibody): 0.832
[2]
  hTRIM21 binding level ratio (variant/control antibody): 0.902
Human FcRn
  hFcRn binding level ratio (variant/control antibody): 0.03

B7: MRAH-G1d/MRAL-KT0 L309I (antibody, human IgG1, kappa)
heavy: QVQLQESGPGLVRPSQTLSLTCTVSGYSITSDHAWSWVRQPPGRGLEWIGYISYSGITTYNPSLKSRVTMLRDTSKNQFSLRLSSVTAADTAVYYCARSLARTTAMDYWGQGSLVTVSS[human IgG1 constant region with L309I (EU numbers) omitted here]
light: DIQMTQSPSSLSASVGDRVTITCRASQDISSYLNWYQQKPGKAPKLLIYYTSRLHSGVPSRFSGSGSGTDFTFTISSLQPEDIATYYCQQGNTLPYTFGQGTKVEIKRTVAAPSVFIFPPSDEQLKSGTASVVCLLNNFYPREAKVQWKVDNALQSGNSQESVTEQDSKDSTYSLSSTLTLSKADYEKHKVYACEVTHQGLSSPVTKSFNRGEC
notes: copies: 2 + 2
[1]
  mTRIM21 binding level ratio (variant/control antibody): 1.71
[2]
  hTRIM21 binding level ratio (variant/control antibody): 0.849
Human FcRn
  hFcRn binding level ratio (variant/control antibody): 0.87

B8: MRAH-G1d/MRAL-KT0 I253M (antibody, human IgG1, kappa)
heavy: QVQLQESGPGLVRPSQTLSLTCTVSGYSITSDHAWSWVRQPPGRGLEWIGYISYSGITTYNPSLKSRVTMLRDTSKNQFSLRLSSVTAADTAVYYCARSLARTTAMDYWGQGSLVTVSS[human IgG1 constant region with I253M (EU numbers) omitted here]
light: DIQMTQSPSSLSASVGDRVTITCRASQDISSYLNWYQQKPGKAPKLLIYYTSRLHSGVPSRFSGSGSGTDFTFTISSLQPEDIATYYCQQGNTLPYTFGQGTKVEIKRTVAAPSVFIFPPSDEQLKSGTASVVCLLNNFYPREAKVQWKVDNALQSGNSQESVTEQDSKDSTYSLSSTLTLSKADYEKHKVYACEVTHQGLSSPVTKSFNRGEC
notes: copies: 2 + 2
[1]
  mTRIM21 binding level ratio (variant/control antibody): 2.71
[2]
  hTRIM21 binding level ratio (variant/control antibody): 1.38
Human FcRn
  hFcRn binding level ratio (variant/control antibody): 0.31

B9: MRAH-G1d/MRAL-KT0 L309F (antibody, human IgG1, kappa)
heavy: QVQLQESGPGLVRPSQTLSLTCTVSGYSITSDHAWSWVRQPPGRGLEWIGYISYSGITTYNPSLKSRVTMLRDTSKNQFSLRLSSVTAADTAVYYCARSLARTTAMDYWGQGSLVTVSS[human IgG1 constant region with L309F (EU numbers) omitted here]
light: DIQMTQSPSSLSASVGDRVTITCRASQDISSYLNWYQQKPGKAPKLLIYYTSRLHSGVPSRFSGSGSGTDFTFTISSLQPEDIATYYCQQGNTLPYTFGQGTKVEIKRTVAAPSVFIFPPSDEQLKSGTASVVCLLNNFYPREAKVQWKVDNALQSGNSQESVTEQDSKDSTYSLSSTLTLSKADYEKHKVYACEVTHQGLSSPVTKSFNRGEC
notes: copies: 2 + 2
[1]
  mTRIM21 binding level ratio (variant/control antibody): 2.12
[2]
  hTRIM21 binding level ratio (variant/control antibody): 0.885
Human FcRn
  hFcRn binding level ratio (variant/control antibody): 0.78

B10: MRAH-G1d/MRAL-KT0 I253Y (antibody, human IgG1, kappa)
heavy: QVQLQESGPGLVRPSQTLSLTCTVSGYSITSDHAWSWVRQPPGRGLEWIGYISYSGITTYNPSLKSRVTMLRDTSKNQFSLRLSSVTAADTAVYYCARSLARTTAMDYWGQGSLVTVSS[human IgG1 constant region with I253Y (EU numbers) omitted here]
light: DIQMTQSPSSLSASVGDRVTITCRASQDISSYLNWYQQKPGKAPKLLIYYTSRLHSGVPSRFSGSGSGTDFTFTISSLQPEDIATYYCQQGNTLPYTFGQGTKVEIKRTVAAPSVFIFPPSDEQLKSGTASVVCLLNNFYPREAKVQWKVDNALQSGNSQESVTEQDSKDSTYSLSSTLTLSKADYEKHKVYACEVTHQGLSSPVTKSFNRGEC
notes: copies: 2 + 2
[1]
  mTRIM21 binding level ratio (variant/control antibody): 1.25
[2]
  hTRIM21 binding level ratio (variant/control antibody): 1.46
Human FcRn
  hFcRn binding level ratio (variant/control antibody): 0
